This series addresses Escherichia coli (laboratory strain). Put plainly: barcode share on antibiotic plates over drug-free plates; higher = less susceptible. The method, then:
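A pool of E. coli strains, each edited to carry one amino-acid change in an essential protein, was grown for 48 h on minimal glucose agar with or without antibiotic; strain barcodes were sequenced; mean of two replicates.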

Where [1] appears, read: antibiotic: carbenicillin, 2× MIC (3.1 µg/mL).
[2] abbreviates: antibiotic: gentamicin, 2× MIC (MIC 0.45 µg/mL).

± gives the standard deviation of the averaged measurements. Laboratory Escherichia coli strains with one amino-acid change in an essential protein, pooled on minimal glucose agar with carbenicillin or gentamicin at twice the control MIC (plus kanamycin and chloramphenicol for the plasmids), 48 h. Fold change of barcode share against drug-free plates; higher = less susceptible. Active = above 20 in both replicates (the paper's putatively resistant). '<' = one read or none on drug, '>' = one read or none on a drug-free plate. Shares are relative, so most strains fall below 1 when a few take over. Listed are strains with at least 15 reads on both drug-free plates, and hits; most hits rest on fewer reference reads. Replicate rank correlation about 0.5. Edits are read from barcodes.

B1: infB V744Q (protein)
chain: MTDVTIKTLAAERQTSVERLVQQFADAGIRKSADDSVSAQEKQTLIDHLNQKNSGPDKLTLQRKTRSTLNIPGTGGKSKSVQIEVRKKRTFVKRDPQEAERLAAEEQAQREAEEQARREAEESAKREAQQKAEREAAEQAKREAAEQAKREAAEKDKVSNQQDDMTKNAQAEKARREQEAAELKRKAEEEARRKLEEEARRVAEEARRMAEENKWTDNAEPTEDSSDYHVTTSQHARQAEDESDREVEGGRGRGRNAKAARPKKGNKHAESKADREEARAAVRGGKGGKRKGSSLQQGFQKPAQAVNRDVVIGETITVGELANKMAVKGSQVIKAMMKLGAMATINQVIDQETAQLVAEEMGHKVILRRENELEEAVMSDRDTGAAAEPRAPVVTIMGHVDHGKTSLLDYIRSTKVASGEAGGITQHIGAYHVETENGMITFLDTPGHAAFTSMRARGAQATDIVVLVVAADDGVMPQTIEAIQHAKAAQVPVVVAVNKIDKPEADPDRVKNELSQYGILPEEWGGESQFVHVSAKAGTGIDELLDAILLQAEVLELKAVRKGMASGAVIESFLDKGRGPVATVLVREGTLHKGDIVLCGFEYGRVRAMRNELGQEVLEAGPSIPVEILGLSGVPAAGDEVTVVRDEKKAREVALYRQGKFREVKLARQQKSKLENMFANMTEGEVHEVNIVLKADVQGSVEAISDSLLKLSTDEVKVKIIGSGVGGITETDATLAAASNAILQGFNVRADASARKVIEAESLDLRYYSVIYNLIDEVKAAMSGMLSPELKQQIIGLAEVRDVFKSPKFGAIAGCMVTEGVVKRHNPIRVLRDNVVIYEGELESLRRFKDDVNEVRNGMECGIGVKNYNDVRTGDVIEVFEIIEIQRTIA
Consider B1, for which the “fold change of barcode share” value by setting is: under setting [1], 0.348 ± 0.12; under setting [2], < 0.00777.

B2: infB V800A (protein)
chain: MTDVTIKTLAAERQTSVERLVQQFADAGIRKSADDSVSAQEKQTLIDHLNQKNSGPDKLTLQRKTRSTLNIPGTGGKSKSVQIEVRKKRTFVKRDPQEAERLAAEEQAQREAEEQARREAEESAKREAQQKAEREAAEQAKREAAEQAKREAAEKDKVSNQQDDMTKNAQAEKARREQEAAELKRKAEEEARRKLEEEARRVAEEARRMAEENKWTDNAEPTEDSSDYHVTTSQHARQAEDESDREVEGGRGRGRNAKAARPKKGNKHAESKADREEARAAVRGGKGGKRKGSSLQQGFQKPAQAVNRDVVIGETITVGELANKMAVKGSQVIKAMMKLGAMATINQVIDQETAQLVAEEMGHKVILRRENELEEAVMSDRDTGAAAEPRAPVVTIMGHVDHGKTSLLDYIRSTKVASGEAGGITQHIGAYHVETENGMITFLDTPGHAAFTSMRARGAQATDIVVLVVAADDGVMPQTIEAIQHAKAAQVPVVVAVNKIDKPEADPDRVKNELSQYGILPEEWGGESQFVHVSAKAGTGIDELLDAILLQAEVLELKAVRKGMASGAVIESFLDKGRGPVATVLVREGTLHKGDIVLCGFEYGRVRAMRNELGQEVLEAGPSIPVEILGLSGVPAAGDEVTVVRDEKKAREVALYRQGKFREVKLARQQKSKLENMFANMTEGEVHEVNIVLKADVQGSVEAISDSLLKLSTDEVKVKIIGSGVGGITETDATLAAASNAILVGFNVRADASARKVIEAESLDLRYYSVIYNLIDEVKAAMSGMLSPELKQQIIGLAEARDVFKSPKFGAIAGCMVTEGVVKRHNPIRVLRDNVVIYEGELESLRRFKDDVNEVRNGMECGIGVKNYNDVRTGDVIEVFEIIEIQRTIA
As for B2, the “fold change of barcode share” value runs as follows: under setting [1], 0.41 ± 0.029; under setting [2], 0.0234 ± 0.0085.

B3: infC L152A (protein)
chain: MKGGKRVQTARPNRINGEIRAQEVRLTGLEGEQLGIVSLREALEKAEEAGVDLVEISPNAEPPVCRIMDYGKFLYEKSKSSKEQKKKQKVIQVKEIKFRPGTDEGDYQVKLRSLIRFLEEGDKAKITLRFRGREMAHQQIGMEVLNRVKDDAQELAVVESFPTKIEGRQMIMVLAPKKKQ
As to B3, under setting [1], the “fold change of barcode share” value stood at 0.32 ± 0.096.

B4: infC M172A (protein)
chain: MKGGKRVQTARPNRINGEIRAQEVRLTGLEGEQLGIVSLREALEKAEEAGVDLVEISPNAEPPVCRIMDYGKFLYEKSKSSKEQKKKQKVIQVKEIKFRPGTDEGDYQVKLRSLIRFLEEGDKAKITLRFRGREMAHQQIGMEVLNRVKDDLQELAVVESFPTKIEGRQMIAVLAPKKKQ
Take B4: the “fold change of barcode share” value is, setting by setting: under setting [1], 0.269 ± 0.043; under setting [2], < 0.00434.

B5: infC L174A (protein)
chain: MKGGKRVQTARPNRINGEIRAQEVRLTGLEGEQLGIVSLREALEKAEEAGVDLVEISPNAEPPVCRIMDYGKFLYEKSKSSKEQKKKQKVIQVKEIKFRPGTDEGDYQVKLRSLIRFLEEGDKAKITLRFRGREMAHQQIGMEVLNRVKDDLQELAVVESFPTKIEGRQMIMVAAPKKKQ
Take B5: the “fold change of barcode share” value was 0.279 ± 0.097 under setting [1] and < 0.0037 under setting [2].

B6: infC M170W (protein)
chain: MKGGKRVQTARPNRINGEIRAQEVRLTGLEGEQLGIVSLREALEKAEEAGVDLVEISPNAEPPVCRIMDYGKFLYEKSKSSKEQKKKQKVIQVKEIKFRPGTDEGDYQVKLRSLIRFLEEGDKAKITLRFRGREMAHQQIGMEVLNRVKDDLQELAVVESFPTKIEGRQWIMVLAPKKKQ
In the case of B6, the “fold change of barcode share” value was 0.313 ± 0.032 under setting [1] and < 0.0091 under setting [2].

B7: infC M170A (protein)
chain: MKGGKRVQTARPNRINGEIRAQEVRLTGLEGEQLGIVSLREALEKAEEAGVDLVEISPNAEPPVCRIMDYGKFLYEKSKSSKEQKKKQKVIQVKEIKFRPGTDEGDYQVKLRSLIRFLEEGDKAKITLRFRGREMAHQQIGMEVLNRVKDDLQELAVVESFPTKIEGRQAIMVLAPKKKQ
With B7, the “fold change of barcode share” value under setting [1] was found to be 0.269 ± 0.07 and the “fold change of barcode share” value under setting [2] was determined as 0.00532 ± 0.0022.

B8: infC M172Q (protein)
chain: MKGGKRVQTARPNRINGEIRAQEVRLTGLEGEQLGIVSLREALEKAEEAGVDLVEISPNAEPPVCRIMDYGKFLYEKSKSSKEQKKKQKVIQVKEIKFRPGTDEGDYQVKLRSLIRFLEEGDKAKITLRFRGREMAHQQIGMEVLNRVKDDLQELAVVESFPTKIEGRQMIQVLAPKKKQ
For the protein B8, the “fold change of barcode share” value turned out to be 0.312 ± 0.0051 under setting [1] and 0.0106 ± 0.0027 under setting [2].

B9: infC I165W (protein)
chain: MKGGKRVQTARPNRINGEIRAQEVRLTGLEGEQLGIVSLREALEKAEEAGVDLVEISPNAEPPVCRIMDYGKFLYEKSKSSKEQKKKQKVIQVKEIKFRPGTDEGDYQVKLRSLIRFLEEGDKAKITLRFRGREMAHQQIGMEVLNRVKDDLQELAVVESFPTKWEGRQMIMVLAPKKKQ
As to B9, the “fold change of barcode share” value by setting is: under setting [1], 0.158 ± 0.012; under setting [2], < 0.0195.

B10: infC M170D (protein)
chain: MKGGKRVQTARPNRINGEIRAQEVRLTGLEGEQLGIVSLREALEKAEEAGVDLVEISPNAEPPVCRIMDYGKFLYEKSKSSKEQKKKQKVIQVKEIKFRPGTDEGDYQVKLRSLIRFLEEGDKAKITLRFRGREMAHQQIGMEVLNRVKDDLQELAVVESFPTKIEGRQDIMVLAPKKKQ
For B10, the “fold change of barcode share” value by setting is: under setting [1], 0.377 ± 0.17; under setting [2], 0.996 ± 1.3.

B11: infC M170Q (protein)
chain: MKGGKRVQTARPNRINGEIRAQEVRLTGLEGEQLGIVSLREALEKAEEAGVDLVEISPNAEPPVCRIMDYGKFLYEKSKSSKEQKKKQKVIQVKEIKFRPGTDEGDYQVKLRSLIRFLEEGDKAKITLRFRGREMAHQQIGMEVLNRVKDDLQELAVVESFPTKIEGRQQIMVLAPKKKQ
With B11, the “fold change of barcode share” value came out at 0.217 ± 0.049 under setting [1] and 0.0122 ± 0.011 under setting [2].

B12: infC V173W (protein)
chain: MKGGKRVQTARPNRINGEIRAQEVRLTGLEGEQLGIVSLREALEKAEEAGVDLVEISPNAEPPVCRIMDYGKFLYEKSKSSKEQKKKQKVIQVKEIKFRPGTDEGDYQVKLRSLIRFLEEGDKAKITLRFRGREMAHQQIGMEVLNRVKDDLQELAVVESFPTKIEGRQMIMWLAPKKKQ
In the case of B12, the “fold change of barcode share” value under setting [1] came to 0.26 ± 0.27.

B13: infC I165Q (protein)
chain: MKGGKRVQTARPNRINGEIRAQEVRLTGLEGEQLGIVSLREALEKAEEAGVDLVEISPNAEPPVCRIMDYGKFLYEKSKSSKEQKKKQKVIQVKEIKFRPGTDEGDYQVKLRSLIRFLEEGDKAKITLRFRGREMAHQQIGMEVLNRVKDDLQELAVVESFPTKQEGRQMIMVLAPKKKQ
Regarding B13, the “fold change of barcode share” value under setting [1] is 0.0417 ± 0.017 and the “fold change of barcode share” value under setting [2] came out at 0.0376 ± 0.026.

B14: infC M172W (protein)
chain: MKGGKRVQTARPNRINGEIRAQEVRLTGLEGEQLGIVSLREALEKAEEAGVDLVEISPNAEPPVCRIMDYGKFLYEKSKSSKEQKKKQKVIQVKEIKFRPGTDEGDYQVKLRSLIRFLEEGDKAKITLRFRGREMAHQQIGMEVLNRVKDDLQELAVVESFPTKIEGRQMIWVLAPKKKQ
As to B14, the “fold change of barcode share” value by setting is: under setting [1], 0.199 ± 0.077; under setting [2], 0.00757 ± 0.0077.

B15: infC L174W (protein)
chain: MKGGKRVQTARPNRINGEIRAQEVRLTGLEGEQLGIVSLREALEKAEEAGVDLVEISPNAEPPVCRIMDYGKFLYEKSKSSKEQKKKQKVIQVKEIKFRPGTDEGDYQVKLRSLIRFLEEGDKAKITLRFRGREMAHQQIGMEVLNRVKDDLQELAVVESFPTKIEGRQMIMVWAPKKKQ
As for B15, the “fold change of barcode share” value was 0.293 ± 0.13 under setting [1] and < 0.00679 under setting [2].

B16: infC L174Q (protein)
chain: MKGGKRVQTARPNRINGEIRAQEVRLTGLEGEQLGIVSLREALEKAEEAGVDLVEISPNAEPPVCRIMDYGKFLYEKSKSSKEQKKKQKVIQVKEIKFRPGTDEGDYQVKLRSLIRFLEEGDKAKITLRFRGREMAHQQIGMEVLNRVKDDLQELAVVESFPTKIEGRQMIMVQAPKKKQ
For the protein B16, the “fold change of barcode share” value reads like this: under setting [1], 0.395 ± 0.036; under setting [2], < 0.0195.

The values are drawn from the supplement of paper PMC11876631.
